Some of the results follow. Viral Rep nickase domains cut single-stranded DNA in vitro at 3 µM enzyme and 37 °C for 1 h; the strands have 90 letters, of which the middle is given. The score is log2 (uncut reads / reads without enzyme); the lower, the more was cut; hits are not called. Shares of all reads are compared, so uncut sequences can rise above 0 when many others are cut.
What follows are sequences tested on T1, Rep nickase domain of tomato golden mosaic virus (assay: uncleaved DNA left, log2 of reads against the no-enzyme library (log2 ratio); higher = less cleavage (more negative = more Rep cleavage of the k-mer); sequences stand for … in CTCGTCCG…ACCGGAGA).
T1 sequence (protein, residues 1-124, tag omitted): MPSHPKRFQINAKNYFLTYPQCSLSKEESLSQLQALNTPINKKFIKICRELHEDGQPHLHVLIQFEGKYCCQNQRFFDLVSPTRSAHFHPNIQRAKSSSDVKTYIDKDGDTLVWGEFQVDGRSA
Description: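 A pool of 90-nt single-stranded DNAs with seven random bases just before the constant AC of the nick site (name = the seven bases) was cut by 3 µM recombinant His6-SUMO-tagged Rep nickase domain (300 nM DNA, 50 mM HEPES pH 8.0, 50 mM NaCl, 1 mM MnCl2, 1 h, 37 °C, three replicates). Uncut DNA was amplified and sequenced.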

Sequence | uncleaved DNA left (log2)
ATTGTAC | -0.00813
GTAGGTA | 0.172
GGGGCCC | -0.0742
CTTTAGC | 0.118
GTCCAGA | 0.0429
TGGGCCC | 0.0761
ATATTTA | 0.0159
TGTTTCC | -0.0587
CGACATG | 0.0977
ACTAGAA | 0.178
GTTCTAA | 0.162
GTCATAA | 0.156
ACAGAAA | 0.201
TCTAATT | -0.119
AGACGAT | 0.0914
GAACATG | -0.00203
ACGAGGC | 0.0452
CTTCGGC | 0.096
GGCCAGC | 0.0742
TTCAAAG | -0.00722

Sequence | uncleaved DNA left (log2)
CCGCAAA | 0.098
TCGGATG | -0.099
CCAAGGA | -0.0384
ACAGCCA | 0.109
CCTACGG | 0.152
ATTATGC | -0.0874
TCAACCA | -0.0609
GGTTACT | 0.0455
CTTCATA | -0.0697
AGGCATA | 0.00303
TAAAGTT | -3.53
GCTTGGA | -0.0617
GTAACCC | 0.0235
TTTAAGA | 0.00471
TCTGTGC | -0.0866
AAATTTA | -0.196
CAGTCTG | 0.138
AGACGGA | 0.188
TCGCGAC | -0.0762
CCAATAA | -0.184
